Assay results reported in PubChem BioAssay AID1671188 (National Center for Advancing Translational Sciences (NCATS), 2021).
Several values for one entry are separate records, joined by “and”; a condition that tells them apart may be missing. Equal values may be shown once. About 250 (0.25%) of roughly 100,000 compounds were called active. This list was built around the results that the source calls inconclusive (neither active nor inactive); the mix of calls is not that of the screen. The call rests on the fitted dose curve; in most records, active means well fitted inhibition curve with a large enough effect; inconclusive means small, poorly fitted or top-dose-only effect; inactive means flat fitted curve, though single readings scatter. Potencies of inconclusive entries are doubtful fits and often do not repeat.
Further: nearly all actives have a fitted effect of over 60% in size.
Potency means the concentration at half of the fitted maximal effect; tags describe the fitted curve by direction and shape.

What follows are molecules tested against Alanine aminotransferase 2 (Homo sapiens) (UniProt Q8TD30) (assay: Primary qHTS assay for inhibitors of Glutamate pyruvate transaminase 2 (GPT2)). Settings: Recombinant GPT2, coupled pyruvate oxidase/HRP Amplex Red fluorescence; series mostly up to 57.7 µM.
UniProt Q8TD30, sequence (Q8TD30 whole entry, looked up): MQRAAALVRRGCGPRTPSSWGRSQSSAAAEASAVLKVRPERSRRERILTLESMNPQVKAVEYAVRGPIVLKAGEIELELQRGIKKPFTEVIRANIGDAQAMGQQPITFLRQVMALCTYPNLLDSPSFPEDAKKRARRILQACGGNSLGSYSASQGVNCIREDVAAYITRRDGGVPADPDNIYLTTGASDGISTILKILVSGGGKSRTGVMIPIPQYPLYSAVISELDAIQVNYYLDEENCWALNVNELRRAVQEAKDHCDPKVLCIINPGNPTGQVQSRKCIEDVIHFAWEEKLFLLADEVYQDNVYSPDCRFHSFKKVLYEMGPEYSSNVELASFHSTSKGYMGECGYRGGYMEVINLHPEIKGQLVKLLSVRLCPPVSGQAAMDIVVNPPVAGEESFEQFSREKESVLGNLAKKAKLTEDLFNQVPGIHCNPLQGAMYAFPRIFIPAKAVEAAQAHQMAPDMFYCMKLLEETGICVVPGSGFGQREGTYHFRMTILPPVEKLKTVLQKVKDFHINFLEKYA
In short: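 Fluorescence read-out: pyruvate from GPT2 turnover coupled to pyruvate oxidase, HRP and Amplex Red (0.2mM ThPP, 0.2U/mL PO and HRP, 50uM Amplex final). Substrates 250uM a-KG, 2mM L-alanine; enzyme 10ng/uL; 30 min RT.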
In the case of `COc1ccccc1-c1nc(C(=O)N2CCN(c3ncccn3)CC2)n2ccccc12`, the Potency is reported as inconclusive: 3.55 µM [inhibitor, single point]. For `CSc1ccc(NC(=O)N2CCC(N(CCC(C)C)C3CCOCC3)CC2)cc1`, the Potency was “inactive”. `Cc1cc(C(=O)N2CCC3(CCCN(C4CCOCC4)C3=O)C2)no1` (configuration not stated) was tested, and the Potency was “inactive”. For `CO[C@H]1[C@H](NC(=O)Cc2ccc(C)cc2)c2ccccc2C12CCNCC2`, the Potency was inconclusive: 3.98 µM [inhibitor, single point]. With `C/C=C/C=C/C(O)=C1\C(O)=C(C)C(=O)[C@@]2(C)OC(=O)[C@@](C)(NC(=O)/C=C/C(=O)O)[C@@H]12` the Potency was inconclusive: 14.1 µM [inhibitor, partial curve, poor fit]. In the case of `CCOC(=O)N1CCC(Nc2ncncn2)CC1`, the Potency is reported as inconclusive: 0.708 µM [inhibitor, full curve, poor fit]. For `CCOc1ccccc1NC(=O)CC[C@H]1NC(=O)c2ccccc2NC1=O`, the Potency was inconclusive: 3.16 µM [inhibitor, single point]. For `O=C(c1ccccc1Cl)N1CCC(c2n[nH]c(=O)n2-c2ccccc2)CC1`, the Potency was inconclusive: 0.631 µM [inhibitor, partial curve, poor fit]. In the case of `COCCCNC(=O)C1CCCN(c2ccnc3ccnn23)C1` (configuration not stated), the Potency is reported as inconclusive: 56.2 µM [inhibitor, single point]. `CC(C)c1ccc(NC(=O)O[C@@H]2CO[C@H]3[C@@H]2OC[C@@H]3NS(=O)(=O)c2cccs2)cc1` was tested, and the Potency was “inactive”. `Cc1c(C(=O)O)c(O)cc2c1C(=O)c1c(O)c([C@@H]3O[C@H](CO)[C@@H](O)[C@H](O)[C@H]3O)c(O)c(O)c1C2=O` was tested, and the Potency was inconclusive: 28.2 µM [inhibitor, single point]. For `O=C(NC[C@H]1Cn2cc(-c3ccccc3)nc2CO1)c1ccc2c(c1)OCO2`, the Potency was inconclusive: 35.5 µM [inhibitor, single point]. `COc1ccc(Nc2cnc3ccc(-c4ccccc4)nn23)cn1` was tested, and the Potency was inconclusive: 1.12 µM [inhibitor, full curve, poor fit]. With `NC(=NCCCCCCN=C(N)/N=C(\N)Nc1ccc(Cl)cc1)/N=C(\N)Nc1ccc(Cl)cc1` the Potency was inconclusive: 15.8 µM [inhibitor, partial curve, poor fit]. For `O=C(C1CN(c2ccc(F)cc2)C(=O)N1)N1CCN(Cc2ccccc2)CC1` (configuration not stated), the Potency was “inactive”. In the case of `CCCc1cc(C(=O)N2CCC(=O)N(CC3CC3)C(C(C)C)C2)n[nH]1` (configuration not stated), the Potency is reported as inconclusive: 39.8 µM [inhibitor, single point]. In the case of `Cc1cccc(OC[C@H]2C[C@@H](N)[C@H](O)[C@@H]2O)n1`, the Potency is reported as inconclusive: 15.8 µM [inhibitor, partial curve, poor fit]. For `Cc1[nH]c(C=C2C(=O)Nc3ccc(S(=O)(=O)Cc4c(Cl)cccc4Cl)cc32)c(C)c1C(=O)N1CCC[C@H]1CN1CCCC1`, the Potency was “inactive”. For `COc1cc(N2CCN(C)CC2)ccc1Nc1nc(N)c(C(=O)c2c(Cl)cccc2Cl)s1`, the Potency was inconclusive: 21.7 µM [inhibitor, partial curve]. For `O=C(NCc1cccc(C(F)(F)F)c1)C1CCc2nnc(CN[S+](=O)([O-])c3ccccc3Cl)n21` (configuration not stated), the Potency was “inactive”. `CC(C)n1cc2cc(C(=O)N3CCN(Cc4ccc5c(c4)OCO5)CC3)sc2c1` was tested, and the Potency was inconclusive: 12.6 µM [inhibitor, partial curve, poor fit]. With `O=[S+]1([O-])NCC2(CCCN(Cc3ccc(F)cc3)C2)Nc2ccccc21` (configuration not stated) the Potency was inconclusive: 3.55 µM [inhibitor, single point]. With `CC(C)(C)CC(=O)N1CCCC(C(=O)Nc2cccc(-c3ccc(F)cc3)c2)C1` (configuration not stated) the Potency was inconclusive: 0.708 µM [inhibitor, full curve, poor fit]. For `Cn1ncc2c(C(=O)N3CCOCC3)cc(-c3cccc(C(F)(F)F)c3)nc21`, the Potency was inconclusive: 39.8 µM [inhibitor, single point]. In the case of `Cc1cnc(C2CCC2)n1CCNC(=O)c1nccn1C`, the Potency is reported as “inactive”. In the case of `CN(Cc1ccccc1)Cc1cn([C@H]2CO[C@H]3[C@@H]2OC[C@@H]3NCC2CCCCC2)nn1`, the Potency is reported as inconclusive: 3.98 µM [inhibitor, partial curve, poor fit]. With `CN1C[C@H]2CN(Cc3ccc(C(F)(F)F)cc3)CCN2C1=O` the Potency was inconclusive: 12.6 µM [inhibitor, single point]. `COc1ccc(C2Cn3nnc(C(=O)N4CCN(C(=O)Cc5ccccc5Cl)CC4)c3CO2)cc1` (configuration not stated) was tested, and the Potency was “inactive”. In the case of `O=C(N[C@H]1CO[C@H]2[C@@H]1OC[C@@H]2n1nnnc1Oc1ccccc1)c1cncnc1`, the Potency is reported as “inactive”. In the case of `CCOc1ccccc1CN1CCC2(CC1)CC(Cc1nc(COC)no1)CCO2` (configuration not stated), the Potency is reported as inconclusive: 0.708 µM [inhibitor, partial curve, poor fit]. With `O=C(Nc1cccc(Cl)c1)c1cnc2c(c1)N([S+](=O)([O-])c1cccnc1)CCC2` the Potency was inconclusive: 56.2 µM [inhibitor, single point]. For `COc1ccc(NC(=O)Cn2ccn3nc(-c4ccc(F)cc4)c(CO)c3c2=O)c(OC)c1`, the Potency was inconclusive: 39.8 µM [inhibitor, single point]. With `COCCNC(=O)c1ccc(OC2CCN(Cc3cccc(SC)c3)CC2)c(Cl)c1` the Potency was “inactive”. `CNCc1cn(C[C@H]2O[C@@H](CC(=O)N3CCC[C@@H]3COC)[C@H](O)[C@@H]2O)nn1` was tested, and the Potency was inconclusive: 56.2 µM [inhibitor, single point]. With `COc1ccc(CCC(=O)N2CCCN(c3cc(-c4ccc(OC)cc4)[nH]n3)CC2)cc1` the Potency was inconclusive: 25.1 µM [inhibitor, partial curve, poor fit]. In the case of `CNC(=O)[C@@H]1C[C@H](Oc2ccccc2)CN1C(=O)c1cc(C)n(C)n1`, the Potency is reported as “inactive”. In the case of `COc1ccc(-c2cn(C)c(=O)n3cc(CN4CC[S+](=O)([O-])CC4)nc23)cn1`, the Potency is reported as inconclusive: 56.2 µM [inhibitor, single point]. With `CC(C)CNc1ccc2c(n1)C(C)(C(=O)NCCc1cnc[nH]1)CN(Cc1ccccc1)C2` (configuration not stated) the Potency was “inactive”. In the case of `CN(C)c1ccc(C(=O)N[C@H]2C[C@@H](c3nc(-c4ccc5c(c4)OCO5)no3)N(C)C2)cc1`, the Potency is reported as “inactive”. For `CCN(CC)C(=S)SSC(=S)N(CC)CC`, the Potency was inconclusive: 5.44 µM [inhibitor, partial curve, poor fit] and active: 11.2 µM and inconclusive: 4.47 µM [inhibitor, full curve, poor fit]. With `Cc1ccccc1[C@H]1C[C@@H](O)[C@@H](O)[C@@H]1NC(=O)c1ccc(C(F)(F)F)cc1` the Potency was inconclusive: 56.2 µM [inhibitor, single point]. For `CC(C)Cn1c(=O)c(C(=O)NCCCc2ccccc2)nc2cccnc21`, the Potency was “inactive”. `CN(C)CC=CC(=O)Nc1cc2c(Nc3ccc(F)c(Cl)c3)ncnc2cc1O[C@H]1CCOC1` was tested, and the Potency was inconclusive: 13.7 µM [inhibitor, single point]. For `CN1CCN(c2nc3c(c(=O)[nH]2)CCN(Cc2cccc(Cl)c2)CC3)CC1`, the Potency was inconclusive: 39.8 µM [inhibitor, partial curve, poor fit]. For `COc1ccnc(Cn2c(=O)n(CC(C)C)c3ncc(C(=O)O)cc32)c1OC`, the Potency was “inactive”. `COc1cccc(CC(=O)NC2CCN(c3cc(-c4cccs4)[nH]n3)C2)c1` (configuration not stated) was tested, and the Potency was inconclusive: 14.1 µM [inhibitor, partial curve, poor fit]. `O=C(c1ccc(Cl)nc1)N1CCC(C(=O)N2CCC(N3Cc4ccccc4C3=O)CC2)CC1` was tested, and the Potency was inconclusive: 6.31 µM [inhibitor, single point]. In the case of `O=C(NCc1ccc(F)cc1)c1cc2n(n1)CC(c1ccc3c(c1)OCO3)OC2` (configuration not stated), the Potency is reported as inconclusive: 6.31 µM [inhibitor, single point]. `O=S(=O)(NCc1cccnc1Oc1ccc(F)cc1F)c1cccnc1` was tested, and the Potency was “inactive”. With `Cc1nc2ccccc2nc1CN1CCC2(CCC(=O)N(CCO)C2)CC1` the Potency was “inactive”. With `C=CCC1(CO)CCCN(Cc2cc(C3CCCCC3)no2)C1` (configuration not stated) the Potency was “inactive”. In the case of `Cc1nn(-c2ccc(F)cc2)c(Oc2ccc(F)cc2F)c1CCC(=O)NCc1ccco1`, the Potency is reported as inconclusive: 6.31 µM [inhibitor, single point]. For `Cc1ccccc1CCC1CCCN(C(=O)c2cccc(O)c2C)C1` (configuration not stated), the Potency was inconclusive: 3.16 µM [inhibitor, single point]. `O=C1Nc2ccccc2CC12CCCN2Cc1ccc(C(F)(F)F)cc1` (configuration not stated) was tested, and the Potency was “inactive”. `O=C1CC(c2ccccc2)N(Cc2ccncc2)CCCN(C(=O)C2(c3ccccc3)CC2)CCN1` (configuration not stated) was tested, and the Potency was inconclusive: 7.08 µM [inhibitor, single point]. For `O=C(O)c1ccccc1CN1CCC2(Cc3ccccc3CNC2=O)C1` (configuration not stated), the Potency was inconclusive: 3.98 µM [inhibitor, single point]. With `CN(C)c1ccc(-c2noc([C@@H]3CCCN3Cc3nc4ccccc4n3C)n2)cn1` the Potency was “inactive”. With `Cc1c(-c2cn(C)c(=O)n3cc(COc4ccc(Cl)cc4)nc23)cnn1C` the Potency was inconclusive: 12.6 µM [inhibitor, single point]. With `O=C(c1ccc(OC2CCN(C(=O)c3cccs3)CC2)nc1)N1CCOCC1` the Potency was inconclusive: 0.708 µM [inhibitor, full curve, poor fit]. For `CC(C)(CC(=O)O)CC(=O)N1C[C@@H]2C[C@H](C1)c1ccc(-c3cc4ccccc4s3)c(=O)n1C2`, the Potency was inconclusive: 44.7 µM [inhibitor, partial curve, poor fit]. `CCN1C(=O)C2(CCN(C(=O)NCCC(C)C)CC2)c2ccccc21` was tested, and the Potency was “inactive”. `COc1ccc(C(=O)N2CCC3(CC2)C(OC)C(=O)N3c2cccc(F)c2)cn1` (configuration not stated) was tested, and the Potency was “inactive”.
